# Test results reported in the supplement of paper PMC4723716.
# ± gives the uncertainty stated by the source. The full ranking holds about 9,900 compounds; the median of “viability index relative to DMSO control” is about 1, and the lowest 2% start at about 0.85. This is one part of the list.
# Test system: Plasmodium falciparum NF54 stage V gametocytes
# Assay: viability index relative to DMSO control (fraction); higher = less gametocyte killing
# Settings: 2.5 µM, library set: Broad Institute DOS, incubation time: 72 h
# Method in brief: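 In 1,536-well plates, 10 µl of serum-free medium holding P. falciparum NF54 stage V gametocytes (0.75% gametocytemia, 1.25% hematocrit) received compound at 2.5 µM for 72 hr at 37°C in low oxygen. After one to two hours with 3 µl of 2.5 µM MitoTracker Red CMXRos containing 0.13% saponin, red particles of 20–70 µm2 were counted in a single field per well. Viability index is reported as the particle count over the plate mean of wells treated with solvent only.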
row,SMILES,viability index
1,O=C(C[C@H]1CC[C@@H](NC(=O)C2CCOCC2)[C@@H](CO)O1)NCC1CCCCC1,1.15 ± 0.1
2,C[C@@H]1CN([C@H](C)CO)C(=O)Cc2cc(NS(=O)(=O)c3cccs3)ccc2O[C@H]1CN(C)CC1CCCCC1,1.07 ± 0.028
3,CCCNC(=O)N[C@@H]1C=C[C@@H](CC(=O)N2CCN(C)CC2)O[C@H]1CO,0.968 ± 0.059
4,CCCC(=O)N1CC[C@@]2(CC1)CN[C@@H](CO)c1[nH]c3cc(OC)ccc3c21,1.14 ± 0.095
5,C/C=C/c1ccccc1[C@@H]1[C@@H](CO)N(C(C)=O)[C@H]1C#N,1.09 ± 0.09
6,COc1cccc(C(=O)Nc2ccc3c(c2)OC[C@@H](C)N(CCc2ccccc2)C[C@H](C)[C@@H](OC)CN(C)C3=O)c1,1.078 ± 0.0053
7,COCC(=O)N1[C@H](CO)[C@@H](c2ccccc2C2=CCCC2)[C@@H]1C#N,1.04 ± 0.016
8,Cc1noc(C)c1NC(=O)N1C[C@H](O)COC[C@@H]2O[C@@H](CC(=O)N[C@H]3CCN(Cc4ccccc4)C3)CC[C@H]21,0.96 ± 0.013
9,C[C@H]1CN([C@@H](C)CO)C(=O)Cc2cc(NC(=O)CCN3CCOCC3)ccc2O[C@@H]1CN(C)Cc1ccc(C(=O)O)cc1,1.02 ± 0.17
10,O=C(c1ccccn1)N1CC2(C1)[C@@H](c1ccccc1)[C@@H](CO)N2Cc1ccc(F)cc1,1.11 ± 0.076
11,CCC(=O)N1C[C@]2(CCN(CC2)C(=O)Nc2ccccc2F)c2c([nH]c3cc(OC)ccc23)[C@H]1CO,0.9987 ± 0.0051
12,COc1ccc2c3c([nH]c2c1)[C@H](CO)N(Cc1cc(OC)cc(OC)c1)C[C@]31CN(C1)S(=O)(=O)c1cccc(F)c1,0.9388 ± 0.0048
13,CS(=O)(=O)Nc1ccc2c(c1)[C@H]1C[C@H](CC(=O)NCCc3ccccc3)O[C@H](CO)[C@H]1O2,1.03 ± 0.08
14,COc1ccc(S(=O)(=O)Nc2ccc3c(c2)C(=O)N([C@@H](C)CO)C[C@@H](C)[C@@H](CN(C)S(=O)(=O)c2ccc(Cl)cc2)OCCCC[C@@H](C)O3)cc1,0.77 ± 0.046
15,COc1ccc(-c2ccccc2[C@@H]2[C@@H](CO)N(C(=O)C3CCC3)[C@H]2C#N)cc1,1.17 ± 0.15
16,CCCNC(=O)N1CC2(C1)[C@H](c1ccccc1)[C@H](CO)N2C(=O)CC1CC1,1.07 ± 0.043
17,N#C[C@H]1[C@@H](c2ccccc2C2=CCCC2)[C@@H](CO)N1C(=O)Cc1ccncc1,1.13 ± 0.18
18,N#Cc1ccc(-c2ccc([C@H]3[C@@H](CO)N4C(=O)CNC[C@H]34)cc2)cc1,1.063 ± 0.0052
19,N#C[C@@H]1N[C@@H](CO)[C@@H]1c1ccc(-c2cccc(F)c2)cc1,1.06 ± 0.039
20,C[C@H](CO)N1C[C@H](C)[C@H](CN(C)C(=O)Nc2cccc3ccccc23)OCc2cn(nn2)CCCC1=O,0.975 ± 0.064
21,CCC(=O)Nc1ccc2c(c1)C(=O)N(C)C[C@H](OC)[C@H](C)CN(C(=O)Cc1cccnc1)[C@@H](C)CO2,1.05 ± 0.093
22,CCNC(=O)C[C@@H]1CC[C@H]2[C@@H](COC[C@H](O)CN2C(=O)C2CCCC2)O1,1.08 ± 0.17
23,NCC[C@@H]1CC[C@@H](NC(=O)NC2CCCCC2)[C@@H](CO)O1,0.951 ± 0.023
24,C[C@@H]1CN([C@@H](C)CO)C(=O)c2cccc(NC(=O)C3CCOCC3)c2O[C@H]1CN(C)C(=O)Nc1cccc2ccccc12,0.966 ± 0.063

row,SMILES,viability index
1,COCC(=O)Nc1ccc2c(c1)[C@H]1C[C@H](CC(=O)N3CCOCC3)O[C@@H](CO)[C@H]1O2,1.06 ± 0.036
2,O=C(C[C@H]1CC[C@@H]2[C@H](COC[C@H](O)CN2Cc2ccc3c(c2)OCO3)O1)N1CCCCC1,1.01 ± 0.072
3,O=C(NC[C@@H]1[C@H](c2ccccc2)[C@H](CO)N1Cc1ccccn1)C1CCCC1,0.684 ± 0.14
4,CCCC(=O)Nc1ccc2c(c1)C(=O)N(C)C[C@H](OC)[C@H](C)CN(Cc1ccc(F)cc1)[C@H](C)CO2,1.01 ± 0.017
5,CN(C)CC(=O)N1[C@@H](CO)[C@@H](c2ccccc2)C12CN(Cc1cccnc1)C2,1.11 ± 0.043
6,O=S(=O)(c1cccc(F)c1)N1CC[C@@H]2[C@@H](CO)Nc3ccc(Br)cc3[C@@H]21,1.094 ± 0.0066
7,COc1ccccc1CN1CC[C@@H]2[C@H]1c1cc(C3=CCCCC3)ccc1N[C@@H]2CO,0.8126 ± 0.0046
8,CNC[C@@H]1Oc2ccc(NC(=O)NC3CCCCC3)cc2CC(=O)N([C@@H](C)CO)C[C@@H]1C,1.13 ± 0.14
9,COC(=O)C[C@@H]1CC[C@H]2[C@H](COc3ccc(NC(=O)c4ccc(C(F)(F)F)cc4)cc3C(=O)N2C)O1,1.06 ± 0.12
10,C[C@H](CO)N1C[C@H](C)[C@H](CN(C)Cc2ccc3c(c2)OCCN3C)OCc2ccccc2-c2ccccc2C1=O,1.045 ± 0.0014
11,CN(C)C(=O)C[C@@H]1CC[C@@H]2[C@H](COC[C@H](O)CN2C(=O)C2CCOCC2)O1,0.9897 ± 0.0065
12,Cc1noc(C)c1C(=O)N(C)C[C@H]1OCc2ccccc2-c2ccccc2C(=O)N([C@H](C)CO)C[C@@H]1C,1.09 ± 0.06
13,CCCNC(=O)C[C@H]1CC[C@H]2[C@@H](COC[C@H](O)CN2Cc2ccncc2)O1,0.985 ± 0.09
14,COc1cccc(-c2ccc([C@@H]3[C@@H](CO)N4C(=O)CN(C(=O)c5cccnc5)C[C@@H]34)cc2)c1,0.983 ± 0.049
15,C[C@H](NC(=O)C[C@H]1CC[C@@H]2[C@H](COc3ccc(NS(=O)(=O)c4ccc(Cl)cc4)cc3C(=O)N2C)O1)c1ccccc1,1.03 ± 0.061
16,COc1ccc(CN(C)C[C@H]2OCCCC[C@H](C)Oc3ccc(NC(=O)C4CCCCC4)cc3C(=O)N([C@H](C)CO)C[C@H]2C)cc1,1.03 ± 0.022
17,COC(=O)C[C@@H]1CC[C@@H]2[C@H](COC[C@H](O)CN2S(=O)(=O)c2cn(C)cn2)O1,1.13 ± 0.025
18,O=C(C[C@@H]1CC[C@H]2[C@@H](COC[C@H](O)CN2Cc2nccs2)O1)NCc1ccccc1Cl,0.994 ± 0.024
19,COc1ccccc1-c1ccc([C@H]2[C@@H](CO)N(CC3CC3)C23CN(S(C)(=O)=O)C3)cc1,1.056 ± 0.0046
20,COc1cccc(S(=O)(=O)N2C[C@@H](O)COC[C@H]3O[C@@H](CC(=O)N4CCN(c5ccccc5)CC4)CC[C@@H]32)c1,1.02 ± 0.021
21,C/C=C/c1ccc([C@@H]2[C@H](CO)N(C(C)=O)[C@H]2CNC(=O)c2ccccc2)cc1,0.992 ± 0.013
22,COc1cccc(NC(=O)N2CC(=O)N3[C@H](CO)[C@@H](c4ccc(C5=CCCCC5)cc4)[C@H]3C2)c1,1.08 ± 0.024
23,CNC[C@@H]1Oc2c(N)cccc2C(=O)N([C@@H](C)CO)C[C@H]1C,0.975 ± 0.17
24,COc1cccc(C#Cc2ccc3c(c2)O[C@H](CN(C)C(=O)CN2CCOCC2)[C@@H](C)CN([C@@H](C)CO)S3(=O)=O)c1,0.969 ± 0.052

row,SMILES,viability index
1,N#C[C@@H]1[C@H](c2ccc(-c3cncnc3)cc2)[C@H](CO)N1C(=O)Cc1ccccc1,1.07 ± 0.035
2,COc1cccc(NC(=O)N[C@H]2C=C[C@@H](CC(=O)NCc3ccncn3)O[C@H]2CO)c1,1.07 ± 0.014
3,CCCC#Cc1ccc([C@H]2[C@H](CO)N3C(=O)CN(C(=O)c4cccnc4)C[C@@H]23)cc1,1 ± 0.015
4,O=C(CC(F)(F)F)N1C[C@H]2[C@@H](c3ccccc31)[C@H](CO)N2Cc1cccnc1,1 ± 0.031
5,O=C(C[C@H]1C=C[C@H](NC(=O)Nc2ccc3c(c2)OCO3)[C@@H](CO)O1)NCCCN1CCOCC1,1.03 ± 0.07
6,COc1ccc(C[C@@H]2CCn3nncc3COCCCNC2=O)cc1,0.969 ± 0.01
7,C[C@@H]1CCCCO[C@@H](CN(C)S(C)(=O)=O)[C@H](C)CN([C@H](C)CO)C(=O)c2cc(NC(=O)NC3CCCCC3)ccc2O1,1.14 ± 0.091
8,COc1ccc2c3c([nH]c2c1)[C@@H](CO)N(C[C@]31CN(C1)C(=O)Nc1cccc(F)c1)C(=O)c1cccnc1,1.05 ± 0.027
9,CC(C)CC#Cc1ccc([C@H]2[C@H]3CN(C(=O)c4ccccn4)CC(=O)N3[C@H]2CO)cc1,1.04 ± 0.021
10,COc1cccc(CN2CC3(C2)[C@H](c2ccccc2)[C@@H](CO)N3Cc2ccccc2OC)c1,0.914 ± 0.013
11,C/C=C/c1ccc2c(c1)[C@H]1[C@H](CCN1S(=O)(=O)c1ccccc1F)[C@H](CO)N2,0.955 ± 0.038
12,Cc1ccccc1S(=O)(=O)N1C[C@H](O)COC[C@@H]2O[C@@H](CC(=O)N3CCCCC3)CC[C@H]21,0.983 ± 0.07
13,C[C@@H]1CN([C@@H](C)CO)C(=O)CCCn2nncc2CO[C@H]1CN(C)Cc1ccc(C(=O)Nc2ccccc2N)cc1,1.078 ± 0.0086
14,O=C(O)C[C@H]1C[C@H]2c3cc(NC(=O)Cc4ccncc4)ccc3O[C@H]2[C@H](CO)O1,1.055 ± 0.0026
15,O=C1NCCOCc2cn(nn2)CCC[C@@H]1Cc1ccccc1,0.943 ± 0.024
16,O=C(C1CCOCC1)N1CC(=O)N2[C@H](CO)[C@H](c3ccc(/C=C/c4ccccc4)cc3)[C@@H]2C1,0.99 ± 0.011
17,C/C=C/c1ccc2n(c1=O)C[C@H]1[C@H](CO)[C@@H](C(=O)NCc3ccccc3Cl)N(S(C)(=O)=O)[C@@H]21.C/C=C\c1ccc2n(c1=O)C[C@H]1[C@H](CO)[C@@H](C(=O)NCc3ccccc3Cl)N(S(C)(=O)=O)[C@@H]21,1.08 ± 0.025
18,O=C(C[C@@H]1CC[C@@H]2[C@H](COC[C@@H](O)CN2Cc2ccc(F)cc2)O1)NCCc1ccccc1,1.04 ± 0.019
19,C/C=C/c1ccc([C@@H]2[C@H]3CN(Cc4ccc(F)cc4)CC(=O)N3[C@H]2CO)cc1,1.08 ± 0.022
20,COc1cccc(S(=O)(=O)Nc2ccc3c(c2)C(=O)N(C)C[C@H](OC)[C@@H](C)CN(Cc2ccccc2F)[C@@H](C)CO3)c1,1.02 ± 0.064
21,Cc1noc(C)c1NC(=O)N1C[C@@H](O)COC[C@H]2O[C@H](CC(=O)N[C@@H]3CCN(Cc4ccccc4)C3)CC[C@@H]21,1.02 ± 0.082
22,Cc1noc(C)c1NC(=O)Nc1ccc2c(c1)C(=O)N([C@@H](C)CO)C[C@H](C)[C@H](CN(C)Cc1ccc3c(c1)OCO3)OCCCC[C@H](C)O2,1.16 ± 0.13
23,C/C=C/c1ccc([C@H]2[C@@H](CO)N(C(=O)CC)[C@@H]2CN(C(=O)C2CC2)C(C)C)cc1,1.03 ± 0.013
24,COc1cccc(-c2ccccc2[C@@H]2[C@@H](CO)N(C(=O)Cc3ccccc3)[C@H]2C#N)c1,1.17 ± 0.13
